In all, about 150,000 compounds went through this assay and about 540 (0.36%) showed an effect of 50% or more. The list shows a part of the results.
These compounds were tested on Plasmodium falciparum (assay: Primary screen in NF54 nanoGlo assay, in single point, at 2uM, 72h; a lower Z score goes with more inhibition). Details: timepoint 72 hour.
Assay type: functional, Erythrocyte

Row | Compound | % Inhibition [%] | Z score
1 | COc1cccc(CC(=O)N(Cc2ccc(F)cc2)Cc2nc3cc(Cl)ccc3o2)c1 | -8 | 0.91
2 | COC(=O)C1(N(C)CC(=O)N2CC(=O)NC(=O)C23CCCCC3)CCCC1 | -1 | 0.19
3 | COC(=O)[C@@H]1C[C@H](O)CCN1C(=O)c1cnc2ccccc2n1 | -6 | 0.6
4 | CN(C)c1ccc(NS(=O)(=O)c2cccc(F)c2)cn1 | 14 | -2.17
5 | O=C([C@@H]1CCc2cccc(O)c21)N1CC(O)(C(F)(F)F)C1 | 0 | 0.09
6 | Cc1nn(C)c(C)c1CC(=O)Nc1ccnn1C(C)C | -2 | 0.22
7 | CS(=O)(=O)CCCC(=O)N1CCCCC[C@H]1C=Cc1ccccc1 | -7 | 0.73
8 | CN1C(=O)C[C@H](C(=O)O)C12CCN(Cc1cccc(-c3ccccc3)c1)CC2 | -12 | 1.78
9 | Cc1cnc(C(=O)N2C(C)CN(C(=O)OC(C)(C)C)C(C)C2C)cn1 (stereo not given) | -7 | 1.02
10 | CCc1nc(C)nc(N2CCN(C(=O)[C@H]3CCOC3)CC2)c1Cc1cccc(OC)c1 | -8 | 1.5
11 | Cc1ccc(C(=O)Nc2ccnn2CCN(C)C)cc1-c1cnn(C)c1 | -17 | 1.76
12 | Cc1c(-c2ccc(OCc3ccccc3)cc2)[nH]c2ccc(OCc3ccccc3)cc12 | -9 | 0.97
13 | CN1C(=O)Cc2cc(-c3csc(-c4ccco4)n3)ccc21 | -6 | 0.88
14 | O=C(C(c1ccccc1)c1ccccc1)N1CCCc2ccccc21 | 1 | -0.09
15 | C=CCN1CCN(C(=O)NC2CCCC2)CC1 | 0 | 0.07
16 | CN(C)c1ccc(CNC[C@@H](c2ccccc2)N2CCCCCC2)cn1 | -3 | 0.49
17 | COc1ccc(CN2CCOC[C@@H](CN(C)C)C2)c(Cl)c1OC | -15 | 1.49
18 | C[C@H]1CCCN(C(=O)c2cccc(S(=O)(=O)N3CCCCC3)c2)C1 | -14 | 2.16
19 | CCN(CC)[C@@H](Cn1cnc(-c2ccccc2)c1-c1cnn(C)c1C)c1ccco1 | 0 | 0.01
20 | C[C@@H]1CCC[C@H](C)N1C(=O)c1coc(COc2cccc(C(F)(F)F)c2)n1 | 0 | -0.01
21 | COCc1cc(Cn2cc(-c3ncc[nH]3)nn2)n[nH]1 | 5 | -0.75
22 | CCc1csc(NC(=O)N(C)Cc2c(C)noc2C)n1 | -2 | 0.29

Row | Compound | % Inhibition [%] | Z score
23 | CCC(CC)C(=O)N1CCC(NS(=O)(=O)C[C@H](C)C2CC2)CC1 | -8 | 0.94
24 | CN(C)C(=O)[C@@H]1CN(CC(=O)NC2CCCCCC2)CCO1 | 3 | -0.42
25 | CC(C)c1ccc(OC[C@H]2c3ccsc3CCN2C(=O)CN(CCN2CCCC2)C(=O)NC(C)(C)C)cc1 | -2 | 0.32
26 | Cn1c(-c2ccc(Cl)c(Cl)c2)c[n+](CC(=O)c2ccc(F)cc2)c1N | 37 | -4.75
27 | CCOCc1ccc(NC[C@H]2CCC=CO2)cc1 | 3 | -0.46
28 | O=C(N[C@H]1CCOC[C@@H]1OCc1cscn1)c1nccnc1O | 2 | -0.19
29 | C[C@@H](c1ccncn1)N(C)C(=O)c1ccc(CCC(C)(C)O)cc1 | -4 | 0.68
30 | COc1cccn(Cc2nccn2C(C)C)c1=O | -4 | 0.8
31 | Cc1ccc(C(=O)O)c(N2CCn3nc(CNC(=O)C4CCC4)cc3C2)n1 | -8 | 1.1
32 | Cc1nc(C2=C(O)CN(C3CCCCCCC3)C2=N)sc1C | -4 | 0.42
33 | c1ccc2c(c1)CC(NCc1cccnc1-n1ccnc1)C2 | -10 | 1.16
34 | Cc1ccc(Cl)cc1/N=C(\NCc1cccnc1)NC(=O)c1cccc(F)c1 | -11 | 0.99
35 | Cc1ccccc1[C@]1(O)CCN(C(=O)NC2(c3cc(F)ccc3F)CC2)C1 | -4 | 0.6
36 | CC(C)[C@H](Cn1nccn1)NC(=O)Nc1cccs1 | -3 | 0.46
37 | Cc1cnc(C)c(N2CCC[C@H](OCC3CC3)C2)n1 | -9 | 1.01
38 | O=C(N[C@@H](Cc1ccccc1)C(=O)N1CCC2(CC1)NCCc1[nH]cnc12)c1ccc2c(c1)OCO2 | -9 | 1.17
39 | CC(=O)Nc1cc(Br)ccc1N | -34 | 3.98
40 | Cc1c(C(=O)N(C)Cc2ccco2)cnn1[C@H]1CCS(=O)(=O)C1 | 2 | -0.35
41 | CC(C)c1nnc(CCC(=O)N2CCOC[C@@H]2CC2CCC2)o1 | -6 | 1.14
42 | Cc1c(Br)cc(C(=O)N(C)c2cnn(C)c2)c(=O)n1C | -7 | 0.89
43 | COC[C@H](NC(=O)Nc1cccc(-n2nccc2C)c1)c1ccco1 | -4 | 0.69
44 | CN(C)c1ccc(N2CCC(C(=O)NCCc3c[nH]c4ccccc34)CC2)nn1 | -16 | 2.91

Row | Compound | % Inhibition [%] | Z score
45 | Cc1nnc(N2CCCC[C@@H]2CCc2ccccc2)s1 | 2 | -0.24
46 | C#CCNC(=O)CC(=O)N1CC[C@H](NC(=O)OC(C)(C)C)c2cc(OC)ccc21 | 7 | -0.8
47 | C[C@@H]1CN(C(=O)c2ccc(-c3cc(NC4CC4)nc(N)n3)cc2)C[C@H](C)O1 | 0 | 0.07
48 | COc1cccc2c(=O)c3c(cnn3C)[nH]c12 | -11 | 2.21
49 | C[C@@H](CN(C)c1ncc(C#N)cc1Cl)c1nnn[nH]1 | 3 | -0.37
50 | COc1ccc(NC(=O)c2n[nH]c3c2CCCC3)cn1 | -14 | 1.76
51 | O=C(Cc1ccccc1)Nc1c(-c2ccc(C(F)(F)F)cc2)n[nH]c1C1CC1 | 5 | -0.85
52 | C=CCn1c(Cc2cn3ccccc3n2)nnc1N1CC2CCC1C2 (stereo not given) | 6 | -0.98
53 | COc1ccc(CNCCC2C(C)CN(C)C(C)C2Cc2ccccc2)cc1 (stereo not given) | 55 | -7.17
54 | CCS(=O)(=O)N1CCC(C(=O)N(Cc2ccccc2)c2ccccc2)CC1 | 4 | -0.52
55 | Cc1cc([C@H](C)NCc2nc(C(C)C)cs2)no1 | -1 | 0.28
56 | O=C1N(CC2CC2)CCC[C@@]1(O)CN1CCC(Cc2ccccc2F)CC1 | -15 | 1.79
57 | Cc1nccnc1CCNCc1ccc(Cl)s1 | -7 | 1.3
58 | O=C(Nc1cnc(N2CCCC2)nc1)c1cccc(Br)c1 | -30 | 2.6
59 | O=C(CCc1conc1-c1cccc(F)c1)NCc1ccco1 | -16 | 2.14
60 | N#Cc1c(F)cccc1NC[C@H]1CCCO1 | -9 | 1.39
61 | CCOC(=O)[C@@H]1CCCCN1C(=O)Cc1cccnc1 | -5 | 0.47
62 | Cc1ccsc1CN1CCc2nc(N3CCC(C)CC3)nc(Oc3ccc(F)cc3F)c2C1 | -15 | 2.13
63 | COc1ccc(C(=O)N2CCC(Cn3c(C)cnc3C3CCOCC3)CC2)cn1 | -3 | 0.39
64 | O=C(c1cc2ccccc2s1)N1CC(N2CCCC2)C1 | -8 | 0.98
65 | COCCCNCCOCCOc1c(C)cccc1C | -3 | 0.51
66 | COCCCn1cnnc1CNC(=O)N[C@H](C)c1ccc(F)cc1 | -8 | 0.85

Row | Compound | % Inhibition [%] | Z score
67 | CCN1CCN(C(C)CNC(=O)C2CCCN2C(=O)c2ccccc2O)CC1 (stereo not given) | -2 | 0.31
68 | Cc1ccc(C2(CNC(=O)N3CCC[C@](C)(O)C3)CC2)c(C)c1 | -19 | 3.38
69 | Cc1[nH]c2ccccc2c1C1=CCN(C(=O)CN2CCCC2=O)CC1 | -6 | 1.14
70 | Cc1cccc2nc(N3CCOC[C@@H](O)C3)sc12 | -2 | 0.47
71 | OC[C@H]1CN(Cc2ccc3cc(Cl)ccc3n2)C[C@H]1CN1CCCCC1 | -11 | 1.82
72 | Cc1n[nH]c(CCc2nc(-c3cn(C)cn3)no2)c1C | -3 | 0.46
73 | CCOCC1(CNC(=O)[C@H](C)S(=O)(=O)CC)CCC1 | -4 | 0.56
74 | Cc1cccc(OC(=O)O[C@H]2c3nccnc3C(=O)N2c2ccc(Cl)cn2)c1 | 32 | -4.18
75 | CCc1ncc(C(=O)N(C)CCc2cn[nH]c2)cn1 | -3 | 0.52
76 | C[C@H](NC(=O)COc1ccc(CO)nc1)c1cccs1 | -2 | 0.26
77 | Cc1cc(C(=O)N2CCn3nc(CCC(=O)NC4CC4)cc3C2)nc(C)n1 | -7 | 1.45
78 | COc1ccc(Cn2nc(C)n(-c3c(C)cccc3C)c2=O)cc1 | 1 | -0.2
79 | CCOCC(=O)N[C@H]1CCN(c2ncnc3c2CCC3)C1 | -11 | 1.88
80 | COc1cccc2nc(C[C@H]3CN(C(=O)C4CCCCC4)CC[C@H]3CC(=O)O)[nH]c12 | -1 | 0.09
81 | COCC1(C(=O)N[C@H]2CN(CC(N)=O)C[C@@H]2c2ccc(C)o2)CCC1 | 1 | -0.27
82 | O[C@H]1CN(c2nc3ccccc3o2)C[C@@H]1N1CCCC1 | -4 | 0.5
83 | CC(C)(C)Cc1nc([C@H]2C[C@@H](c3ccccc3)N3CCC[C@H]23)no1 | -12 | 2.34
84 | Cc1cc(NC(=O)c2csc(CN(C)C)n2)cc2sc(N)nc12 | 2 | -0.23
85 | CC(C)(CNc1ccc(Br)cc1C#N)NS(C)(=O)=O | -11 | 1.29

— ChEMBL document CHEMBL4888484, “Replenishing the malaria drug discovery pipeline: Screening and hit evaluation of the MMV Hit Generation Library 1 (HGL1) against asexual blood stage Plasmodium falciparum ,using a nano luciferase reporter read-out” (2022)
